# Measured values reported in PubChem BioAssay AID493208 (National Center for Advancing Translational Sciences (NCATS), 2011).
# Screen size: about 44,000 compounds; about 340 (0.77%) were called active. About 5% were inconclusive and are not listed. Calls come from the whole dose curve; as a rule, active = well fitted inhibition curve with a large enough effect; inconclusive = small, poorly fitted or top-dose-only effect; inactive = flat fitted curve, though single readings scatter. Some of the results follow.
# Assay: Acumen qHTS Assay for Inhibitors of the mTORC1 Signaling Pathway in MEF (Tsc2-/-, p53-/-) Cells: Sytravon;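 note: plate controls were DMSO for no effect and rapamycin for full effect; nearly all actives have a fitted effect of over 50% in size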
# Conditions: phospho-rpS6 immunofluorescence/PI, 24 h; series mostly up to 38.3 µM; activity change, negative = inhibition: at the top concentration
# Procedure, shortened: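 Tsc2-/-, p53-/- MEFs (empty-vector stable line) in DMEM + 10% FBS were treated with compounds 24 h at 37 degree Celsius, fixed, and immunostained for phospho-rpS6 (Alexa-488) with propidium iodide counterstain. Laser-scanning cytometry gave % positive cells, normalized against 7.5 nM rapamycin and DMSO.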
row,SMILES,"activity change, negative = inhibition"
1,CCc1ccc(-n2nc(C)c3c(C(=O)N4CCN(c5cccc(Cl)c5)CC4)cc(C)nc32)cc1,inactive: -16.3%
2,CCOC(=O)c1ccc(NC(=O)CCc2c(C)nc3c(c(C)nn3C(C)(C)C)c2C)cc1,inactive: -5.79%
3,Cc1nn(CC(=O)N2CCN(c3cccc(Cl)c3)CC2)c(=O)c2c1sc1ccccc12,inactive: -3.53%
4,COc1cc(OC)c(NC(=O)NCc2cccn2Cc2ccccc2)cc1Cl,inactive: -25%
5,CCOc1cc(C(=O)OCc2cc(=O)n3nc(C4CC4)sc3n2)cc(OCC)c1OCC,inactive: 1.18%
6,Cc1ccc(S(=O)(=O)NCCc2nnc3ccc(SCC(=O)Nc4ccc(OC(F)(F)F)cc4)nn23)cc1,inactive: -1.88%
7,O=C1COc2cc(S(=O)(=O)CCC(=O)N3CCN(c4ccccc4)CC3)c(Cl)cc2N1,inactive: 5.12%
8,CCOc1ccc(NC(=O)Cn2c(=O)c(CNc3ccccc3)cc3cc4c(cc32)OCCO4)cc1,inactive: -2.78%
9,CCCc1ccc(-c2ccc(C(=O)Oc3ccc(Br)cc3)cc2)nc1,inactive: 1.03%
10,COC(=O)c1ccc(CSc2nc3c([nH]c4ccccc43)c(=O)n2-c2cc(C)cc(C)c2)o1,inactive: -8.59%
11,CCCCCn1c(CNC(=O)c2ccc(F)cc2)nc2ccccc21,inactive: -18.8%
12,CN(C(=O)Cn1ncc2c1-c1ccccc1OC2)c1ccc(Br)cc1,inactive: 3.43%
13,O=C(Nc1ccc2c(c1)OCO2)c1cc(-c2ccc(Cl)cc2)on1,inactive: -3.53%
14,COc1ccccc1OCC(=O)Nc1c(C(=O)c2ccc(C)cc2)oc2ccccc12,inactive: 14.7%
15,CCOC(=O)c1c(C)[nH]c(C)c1S(=O)(=O)N1CCC(C(=O)NCc2ccc(N(C)C)cc2)CC1,inactive: -4.01%
16,COc1ccc(OC)c(CCNC(=O)C(C)n2c(C)c3cnn(-c4ccccc4)c(=O)c3c2C)c1 (stereo not given),inactive: 4.29%
17,COc1ccccc1CNS(=O)(=O)c1ccc(N2CCCCS2(=O)=O)cc1,inactive: 0%
18,COc1ccc(Cl)cc1C(=O)Nc1c2c(nn1-c1ccc(Cl)cc1)CS(=O)(=O)C2,inactive: 5.54%
19,CCOc1ccc(CNC(=O)C2=Cc3cc(Br)ccc3OC2)cc1OC,inactive: -18.6%
20,COc1ccccc1NC(=O)c1oc2ccccc2c1NC(=O)COc1ccccc1OC,inactive: -14.1%

row,SMILES,"activity change, negative = inhibition"
1,COc1ccc(Cl)cc1NC(=O)CSc1nc(=O)[nH]c2c1CCCC2,inactive: -0.0304%
2,CCOc1ccc(NC(=O)Cn2cc(C(=O)c3ccccc3)c(=O)c3cc4c(cc32)OCO4)cc1,inactive: -2.1%
3,COc1cc(Cl)c(NC(=O)CN(C)S(=O)(=O)c2ccc3c(c2)CCCC(=O)N3)c(OC)c1,inactive: -1.7%
4,Cc1ccc2oc(-c3ccc(NC(=O)c4cccc(F)c4)c(C)c3)nc2c1,inactive: -4.96%
5,COc1ccc(NC(=O)c2cc(C)nc3c2c(C)nn3-c2cccc(Cl)c2C)c(OC)c1,inactive: 0.346%
6,CC(=O)N1c2c(cc(Br)cc2S(=O)(=O)NCc2ccccc2Cl)CC1C (stereo not given),inactive: -13.7%
7,COc1cc(NC(=O)N2CCC(CN3CCc4ccccc4C3)CC2)cc(OC)c1,inactive: -1.73%
8,Cc1ccc(-c2nnc(Nc3cccc(O)c3)c3ccccc23)cc1S(=O)(=O)N1CCCCC1,inactive: 11.6%
9,CCOc1ccc(OCC)c(NC(=O)c2csc3c2CCCC3)c1,inactive: -4.38%
10,O=C(O)c1ccc2c(c1)N(Cc1ccc(F)cc1Cl)C(=O)c1ccccc1S2,inactive: 6.34%
11,COc1ccc(CCNC(=O)c2cc(S(=O)(=O)N3CCCC(C)C3)cn2C)cc1OC (stereo not given),inactive: 5.99%
12,COc1ccc(NC(=O)CCS(=O)(=O)c2nc(-c3ccc4c(c3)OCO4)cc(C(F)(F)F)n2)c(OC)c1,inactive: 1.5%
13,CC(C)N(Cc1ccccc1)C(=O)CN1C(=O)COc2ccc(S(=O)(=O)N3CCCCCC3)cc21,inactive: -20.6%
14,CCN(C(=O)c1cnc(N2CCOCC2)c2ccccc12)c1cc(C)ccc1C,inactive: -1.47%
15,CC(CNC(=O)CCCn1c(=O)c2cccn2c2ccccc21)c1ccccc1 (stereo not given),inactive: -8.76%
16,CCOc1ccccc1NC(=O)c1ccc2c(Cl)c3c(nc2c1)CCCC3,inactive: -8.64%
17,CC(=O)Nc1ccc(NC(=O)CCC(=O)c2ccc(C)cc2)cc1,inactive: 0.272%
18,O=C(OCc1cc(=O)n2nc(-c3cccs3)sc2n1)c1ccccc1Br,inactive: -10.6%
19,Cc1cc(NC(=O)C(C)(C)Oc2ccc(Cl)cc2)cc(-c2nc3ncccc3o2)c1O,inactive: -0.307%
20,CCCn1c2ccccc2c2cnn(CC(=O)Nc3ccc(C)cc3Br)c(=O)c21,inactive: -3.33%

row,SMILES,"activity change, negative = inhibition"
1,Cc1cc2ccccc2n2c(SCC(=O)Nc3cccc(C(F)(F)F)c3)nnc12,inactive: -10.1%
2,CCOC(=O)c1ccc(NC(=O)CSc2nccn2Cc2ccc(OC)cc2)cc1,inactive: -3.02%
3,Cc1cc(C)cc(C(=O)Nc2nnc3n2CCS3)c1,inactive: -0.445%
4,CC(=O)c1cccc(NC(=O)c2c(C)nn(-c3ccc(F)cc3)c2-n2cccc2)c1,inactive: -6.65%
5,CCCCCN1C(C(=O)c2ccccc2)=C(NC(C)=O)c2ccccc2S1(=O)=O,inactive: -14.2%
6,O=C(CSc1ncc2c(n1)-c1cc(Cl)ccc1N(Cc1ccccc1F)S2(=O)=O)Nc1cccc(C(F)(F)F)c1,inactive: -9.65%
7,COC(=O)c1cc(NC(=O)c2ccc3c(c2)N(Cc2cccc(Cl)c2)C(=O)c2ccccc2S3=O)cc(C(=O)OC)c1 (stereo not given),inactive: 3.21%
8,COc1ccc(OCc2nc3c4c(-c5ccc(OC)cc5)c(-c5ccc(OC)cc5)oc4ncn3n2)cc1,inactive: 9%
9,CNc1oc(-c2ccc(COc3ccc(C)cc3)o2)nc1C#N,inactive: -1.04%
10,Cc1cccc(CNC(=O)c2sc3ncnc(N(C)C4CCCCC4)c3c2C)c1,inactive: -6.86%
11,CCN(CC)c1nc(-c2ccccc2Cl)c2cc(Br)ccc2n1,inactive: -8.67%
12,O=C(C1CC1)N1CCN(c2nc3c(F)cc(F)cc3s2)CC1,inactive: -5.43%
13,Cc1nn(-c2ccccc2)c2nc(C3CC3)cc(C(=O)NCc3ccccc3Cl)c12,inactive: -1.3%
14,CCc1ccc(NC(=O)c2sc3nc(C)c(Cl)c(C)c3c2NC(=O)c2ccccc2)cc1,inactive: 3.76%
15,Cc1cc(Cl)ccc1OCC(=O)N(Cc1ccc(N(C)C)cc1)CC1CCCO1 (stereo not given),inactive: -6.36%
16,CC(C)Nc1ccc(-c2nc(-c3ccccn3)no2)cc1[N+](=O)[O-],inactive: 1.34%
17,O=S(=O)(c1ccc(-c2cnc(C3CC3)o2)cc1)N1CCN(c2cccc(Cl)c2)CC1,inactive: 7.48%
18,CCOc1ccccc1C(=O)Nc1cc(-c2ccc(C)cc2)no1,inactive: 3.96%
19,Cc1cccc(S(=O)Cc2ccc(C(=O)NC3CCCCCC3)o2)c1 (stereo not given),inactive: 0.316%
20,Cc1ccc(C(=O)Nc2ccc(C(=O)OCc3cc(=O)n4c5c(sc4n3)CCCC5)cc2)cc1,inactive: 0%
